Measurements: article PMC3050690

Target: T1, MalE-GadX (GadX fused to maltose-binding protein) (Escherichia coli K-12 (genomic library)) (UniProt P37639)
T1 sequence: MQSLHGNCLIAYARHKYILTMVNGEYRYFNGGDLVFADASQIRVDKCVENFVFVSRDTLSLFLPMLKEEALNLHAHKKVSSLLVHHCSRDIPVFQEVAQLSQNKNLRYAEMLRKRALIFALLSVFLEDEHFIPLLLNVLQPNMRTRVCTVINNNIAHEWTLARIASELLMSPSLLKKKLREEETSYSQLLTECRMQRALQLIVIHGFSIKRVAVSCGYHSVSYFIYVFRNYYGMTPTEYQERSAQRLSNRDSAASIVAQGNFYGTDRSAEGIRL
Experiment: EMSA
Conditions: EMSA: binding buffer of Tramonti et al. (not given), room temperature 20 min, 5% native PAGE 0.5X TBE; footprinting: 40 mM HEPES pH 8.0, 100 mM KCl, 10 mM Mg …

**Q.** “CGTGAATCGAGTAGTTCCGACCTTAAATCCGTTACTTGCTTCTTATCCATTTTAAACTCCTTAAAATGATTGGATCGCATTAAAAAAGTAGGATTTATCGATAAAGTAAGCAAGTGCAAAGGACTCGTGTTTAAATAACAAAATCCTAATGTTATTTATCGTGAGATATTACGCGAATAATATTTTTTCATTGAAAAACAATACAATATGAAATTCTTGGGTGGTGGTAAGGTGTTTTATGCTGTTATT (double strand) [PgadB promoter fragment]” was tested. Which binding did it give?
**A.** binds

**Q.** With “CGTGAATCGAGTAGTTCTGAGCGGAAATCCGTTAACAGCTTCTGGTCCATTTCGAACTCCTTAAATTTATTTGAAGGCAATAAAAAAGTAGGATTTATCCGCAATGGAAGCAAGGCATTACAGGCTTAATTTAAATAACAAAATCCTAAGCAGAAAAACGACTTTTTATAATATAAACATTTAACATGATAATATTAAAAACAGACTTTATTATCGTAATAAAAATCGCCCAAACATTGCTGTTCGGGCGATC (double strand) [PgadA promoter fragment]” as the sequence, how does the binding read?
**A.** binds
